Measured values from PubChem BioAssay AID493208 (National Center for Advancing Translational Sciences (NCATS), 2011).
In all, about 44,000 compounds went through this assay and about 340 (0.77%) were called active. About 5% were inconclusive and are not listed. The call rests on the fitted dose curve; in most records, active means well fitted inhibition curve with a large enough effect; inconclusive means small, poorly fitted or top-dose-only effect; inactive means flat fitted curve, though single readings scatter. Some of the results follow.

Experiment: Acumen qHTS Assay for Inhibitors of the mTORC1 Signaling Pathway in MEF (Tsc2-/-, p53-/-) Cells: Sytravon;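 further: plate controls were DMSO for no effect and rapamycin for full effect; nearly all actives have a fitted effect of over 50% in size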
Conditions: phospho-rpS6 immunofluorescence/PI, 24 h; series mostly up to 38.3 µM; activity change, negative = inhibition: at the top concentration
How it was run: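 Tsc2-/-, p53-/- mouse embryonic fibroblasts (empty-vector line) exposed to compound 24 hrs at 37 C, fixed, immunostained for phospho-rpS6 and counterstained with propidium iodide. Acumen laser scanning gives % positive cells from Alexa 488/PI ratio, thresholded using 7.5 nM rapamycin; PI count gives viability.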

Activity change, negative = inhibition, inactive:
Cc1ccc(NCc2cccn2-c2nnc(N3CCC(C(=O)NCc4ccc(OC(C)C)cc4)CC3)s2)cc1 -4.48%, CNS(=O)(=O)c1ccc(OC)c(-c2nnc3c4ccccc4c(C)nn23)c1 -2.43%, COc1ccccc1N1CCN(S(=O)(=O)c2c(C)sc3ncn(CC(=O)N(C)c4ccc(C(C)C)cc4)c(=O)c23)CC1 -9.49%, O=c1cc(CN2CCN(S(=O)(=O)c3ccc(Cl)cc3)CC2)nc2sc(-c3ccccc3F)nn12 2.22%, O=S(=O)(NCCc1ccccc1)c1ccc(N2CCCCS2(=O)=O)cc1 0%, CCOc1ccc(NS(=O)(=O)c2ccc3[nH]cc(C(=O)NCc4ccco4)c(=O)c3c2)cc1 -1.18%, Cc1cccc(NC(=O)c2sc3nc4n(c(=O)c3c2C)N=C(c2ccc(F)cc2)CS4)c1C 0.398%, Cc1ccc(C)c(N2CCN(c3nc4ccccc4c4nc(CCn5nc(C)cc5C)nn34)CC2)c1 -9.37%, COc1ccc(C(=O)O)cc1Nc1nc2ccc(C)cc2n2cnnc12 -4.97%, O=C(CSc1nc(-c2ccc(Cl)cc2)nc2c1Cc1ccccc1O2)N1CCCCC1 1.09%, Cc1ccc(N2C(=O)CS(=O)(=O)C23C(=O)N(Cc2cccc(F)c2)c2ccccc23)cc1Cl (stereo not given) -18.4%, COc1ccc(Cl)cc1NC(=O)c1cc2nc(-c3ccc4c(c3)OCO4)cc(C(F)(F)F)n2n1 -0.128%, COC(=O)Cn1c(=O)c2c(nc3n2CCN3c2cccc(C)c2)n(C)c1=O 12.7%, CCCCc1ccc(NC(=O)c2cc3c(=O)n4ccccc4nc3n2C)cc1 -3.22%, COc1ccc(NC(=O)CCCc2nc(-c3ccco3)no2)c(OC)c1 -11.4%, COc1ccc2nc3sc(C(=O)Nc4ccccc4F)cc3cc2c1 -14.4%, CCN(CC)S(=O)(=O)c1ccc(NC(=O)[C@H](CSCc2ccccc2)N2Cc3ccccc3C2=O)cc1 -8.2%, O=C(c1ccco1)N(Cc1cccnc1)c1nc2ccc(F)cc2s1 -0.661%, CCc1ccc(C2C(C(=O)Nc3ccccc3)=C(C)Nc3c(C(=O)Nc4ccc(C)cc4)cnn32)cc1 (stereo not given) 2.24%, COc1cc(OC)cc(-c2nc3n(n2)C(c2ccccc2F)C(C(=O)Nc2cccnc2)=C(C)N3)c1 (stereo not given) -13.9%, CCc1ccc(S(=O)(=O)c2cn(C)c3cc(N4CCCCC4C)c(F)cc3c2=O)cc1 (stereo not given) -0.706%, Cc1cc(C)cc(NC(=O)C2CCCN(c3nnc(C)c4c(C)n(-c5ccccc5)nc34)C2)c1 (stereo not given) -6.32%, CCOC(=O)Cn1c(=O)oc2cc(S(=O)(=O)N3CCN(c4ccc(Cl)cc4)CC3)ccc21 -10.5%, O=C(Nc1ccc(C(F)(F)F)cc1)C1CCC(CNS(=O)(=O)c2cccc3nsnc23)CC1 (stereo not given) -7.74%, CCOC(=O)C1CCN(C(c2ccccc2)c2c(O)cc(C)n(Cc3ccco3)c2=O)CC1 (stereo not given) 7.88%, COc1ccc(OCC(=O)Nc2nnc(S(=O)(=O)N3CCCCCC3)s2)cc1 -5.13%, CCc1c(C)c2ccc3c(c2oc1=O)CN(Cc1ccccc1)CO3 -3.37%, O=C(CSc1nccn1Cc1ccco1)Nc1cccc(F)c1 -17.6%, Cc1ccc(-n2c(CCC(=O)O)ccc2-c2cccs2)cc1C -1.31%, COc1cc(C2CC(=O)Nc3c2c(=O)[nH]c2nc4ccccc4n32)ccc1O (stereo not given) -4.86%, CCC(C)NC(=O)c1cc2c(Cl)nc3ccc(C)cc3c2s1 (stereo not given) 2.62%, CC1(C)C(=O)N(CC(=O)Nc2ccc(Cl)cc2)c2ccccc21 -8.83%, COc1ccc(-c2nn3c(-c4ccc(OC)cc4)nnc3c3ccccc23)cc1 20.6%, Cc1ccc2c(c1)cc(C(=O)Nc1ccccc1C)n2C -15.2%, Cc1ccc(NC(=O)Cn2c(=O)n(Cc3ccccc3)c(=O)c3c(C)c(C)sc32)c(C)c1 3.05%, CCC(Cc1ccccc1)NC(=O)c1ccc2nc(N3CCC(C)CC3)sc2c1 (stereo not given) 1.38%, CCOC(=O)c1ccc(-n2c(N)c(C(=O)OC)c3nc4ccccc4nc32)cc1 1.27%, CCc1ccccc1NC(=O)C1=CC(c2ccc(OC)c(OC)c2)=NS(=O)(=O)N1C 1.84%, Cc1cccc(C)c1OCC(=O)NCC1(N2CCOCC2)CCCCC1 -7.72%, CC1CCCN(c2csc3ccc(F)cc3c2=O)C1 (stereo not given) 4.28%, COc1ccc(OC(=O)c2nc(SCc3ccc(C)cc3)ncc2Cl)cc1 1.3%, O=C(CN1C(=O)COc2ccc(S(=O)(=O)N3CCCCC3)cc21)NCc1ccc(F)cc1 -0.685%, Cc1ccc(-c2nc(C)c(CCNC(=O)C(=O)Nc3ccc4c(c3)OCCO4)s2)cc1 -5.86%, CCCOc1ccc(C(=O)Nc2cccc(-c3nc4ccccc4[nH]3)c2)cc1 -16.3%, COc1ccc(-n2nc3ccc(NC(=O)c4cc5ccccc5o4)cc3n2)cc1Cl 7.71%, CCOc1ccc(CNC(=O)C2CCCN(c3nc4c(C)cc(C)cc4s3)C2)cc1 (stereo not given) -3.03%, COc1ccccc1-c1nc(S(=O)(=O)c2ccc(Cl)cc2)c(N2CCCCCC2)o1 2.52%, CCC(CC)C(=O)Nc1cccc(-c2nc3cccnc3s2)c1C 6.89%, CC1(C)O[C@H]2[C@@H](O1)[C@@H](C(=O)Nc1ccccc1O)O[C@@H]1OC(C)(C)O[C@@H]12 -7.73%, CCc1ccc(-c2nn(CC(=O)NC3CCCC3)c3c2cnc2ccc(C)cc23)cc1 -5.62%, CCOc1cc(C2C(C(=O)OC)=C(C)NC3=C2C(=O)c2ccccc23)ccc1O (stereo not given) 0.672%, O=C(Nc1ccc(N2CCC(N3CCCCC3)CC2)c(C(=O)O)c1)c1ccc(Br)cc1 0.67%, Cc1cccc(/C=C/c2onc(C)c2S(=O)(=O)N2CCC(C(=O)N3CCC(C)CC3)CC2)c1 -2.51%, Cc1ccc(C(C)C)c(OCC(=O)Nc2c(C(=O)c3ccccc3)oc3ccccc23)c1 0.0823%, Cc1ccc(NC(=O)c2sc3ccccc3c2Cl)cc1 -11.3%, Cc1ccc(CN2C(=O)c3ccccc3C2C(=O)NC2CCCCCC2)cc1 (stereo not given) -17.4%, Cc1cc(Nc2cccc(C(F)(F)F)c2)nc2ccc(NC(=O)c3ccc(N(C)C)cc3)cc12 4.02%, Cc1cc(O)c(C(c2ccc(F)cc2)N2CCCCC2)c(=O)n1Cc1ccco1 (stereo not given) 1.85%, CCc1ccc(-n2nc(C)c3c(C(=O)Nc4cccc(C(F)(F)F)c4)cc(C)nc32)cc1 -3.58%, O=C(Nc1cccc(C(=O)N2CCCCC2)c1)c1nsc2ccccc12 1.31%
